Drawing on the supplement of paper PMC10369915, this text covers enrichment score for 18 molecules.

The list shows a part of the results. No stated cut-off is given here; in the data, active = 3.2 or more and inactive = the rest. Only a few entries rise above the background.
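Further: displayed peptides selected on beads carrying the immobilized SH2 domain, with library peptides lacking any tyrosine serving as negative controls.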

The target of the first experiment is SHP2 C-SH2 domain E139D. Briefly: enrichment score (SH2-bound / input frequency) (ratio); bacterial display of known human phosphotyrosine sites (pTyr-Var adds point mutants) read by sequencing; higher = stronger binding; tyrosines were phosphorylated by kinases first. Conditions: peptide library: pTyr-Var.
For the molecule ALKKPYGVLFK [RPF2_Y59_YF], the enrichment score was inactive: 2.67.

PVVKLYATEGR [RP1_Y199_D202E]: the enrichment score is inactive: 0.644.

Turning to DENWFYTRAAS [RPS19_Y54], the enrichment score was inactive: 0.918.

Regarding PMFTKYGNSLL [RPGRIP1L_Y196], the enrichment score was inactive: 1.18.

In the case of YGSSSSGGAGG [RPA2_Y14_Y14S], the enrichment score is inactive: 0.451.

For ALKKPYGVLYK [RPF2_Y59], the enrichment score was inactive: 2.34.

In the case of SPYMLYQYLKQ [RPAP3_Y567_D564Y], the enrichment score was inactive: 1.59.

Turning to VIGRMYDFHVL [RPF2_Y109_YF], the enrichment score was inactive: 2.2.

For the molecule ALKKPYSVLFK [RPF2_Y59_G60S_YF], the enrichment score is inactive: 2.62.

Regarding SPDMLYQYLKQ [RPAP3_Y567], the enrichment score was inactive: 0.943.

In the case of KIEGIYARDET [RPL35A_Y34_V33I], the enrichment score is inactive: 0.795.

For the molecule SGFESYGSSSS [RPA2_Y9_Y14S], the enrichment score was inactive: 0.591.

As to SGFESYGSSSY [RPA2_Y9], the enrichment score was inactive: 0.552.

In the case of QNVADYMRFLM [RPL5_Y207_YF], the enrichment score is inactive: 1.82.

For the molecule KELAPYDENRF [RPS19_Y48_W52R], the enrichment score was inactive: 0.626.

Consider RRGTRYMFSRP [RPL21_Y13], for which the enrichment score was inactive: 0.205.

With HEDPMYDIIRD [RP9_Y142], the enrichment score was inactive: 0.665.

As to KELALYDENWF [RPS19_Y48_P47L], the enrichment score was inactive: 1.01.

For the next experiment, the target named is SHP2 C-SH2 domain wild-type. The experiment is described as above. Conditions: peptide library: pTyr-Var.
With ALKKPYGVLFK [RPF2_Y59_YF], the enrichment score was inactive: 2.59.

Turning to PVVKLYATEGR [RP1_Y199_D202E], the enrichment score is inactive: 0.914.

Regarding DENWFYTRAAS [RPS19_Y54], the enrichment score is inactive: 0.581.

In the case of PMFTKYGNSLL [RPGRIP1L_Y196], the enrichment score was inactive: 0.787.

Consider YGSSSSGGAGG [RPA2_Y14_Y14S], for which the enrichment score was inactive: 0.364.

Turning to ALKKPYGVLYK [RPF2_Y59], the enrichment score was inactive: 2.05.

Regarding SPYMLYQYLKQ [RPAP3_Y567_D564Y], the enrichment score is inactive: 2.14.

Regarding VIGRMYDFHVL [RPF2_Y109_YF], the enrichment score was inactive: 1.64.

In the case of ALKKPYSVLFK [RPF2_Y59_G60S_YF], the enrichment score was inactive: 2.86.

With SPDMLYQYLKQ [RPAP3_Y567], the enrichment score is inactive: 0.924.

KIEGIYARDET [RPL35A_Y34_V33I]: the enrichment score is inactive: 0.812.

With SGFESYGSSSS [RPA2_Y9_Y14S], the enrichment score was inactive: 0.624.

Turning to SGFESYGSSSY [RPA2_Y9], the enrichment score is inactive: 0.552.

For QNVADYMRFLM [RPL5_Y207_YF], the enrichment score is inactive: 1.26.

Regarding KELAPYDENRF [RPS19_Y48_W52R], the enrichment score was inactive: 0.647.

RRGTRYMFSRP [RPL21_Y13]: the enrichment score was inactive: 0.189.

For the molecule HEDPMYDIIRD [RP9_Y142], the enrichment score was inactive: 0.514.

For KELALYDENWF [RPS19_Y48_P47L], the enrichment score was inactive: 0.984.

The next experiment has as its target SHP2 N-SH2 domain L43F. The experiment is described as above. To be noted: peptide library: pTyr-Var.
For the molecule ALKKPYGVLFK [RPF2_Y59_YF], the enrichment score is inactive: 2.73.

Consider PVVKLYATEGR [RP1_Y199_D202E], for which the enrichment score was inactive: 0.884.

For DENWFYTRAAS [RPS19_Y54], the enrichment score is inactive: 0.853.

As for PMFTKYGNSLL [RPGRIP1L_Y196], the enrichment score is inactive: 0.771.

Take YGSSSSGGAGG [RPA2_Y14_Y14S]: the enrichment score is inactive: 0.447.

For ALKKPYGVLYK [RPF2_Y59], the enrichment score was inactive: 2.1.

As to SPYMLYQYLKQ [RPAP3_Y567_D564Y], the enrichment score is inactive: 1.62.

Take VIGRMYDFHVL [RPF2_Y109_YF]: the enrichment score is inactive: 3.11.

Take ALKKPYSVLFK [RPF2_Y59_G60S_YF]: the enrichment score is inactive: 2.77.

As to SPDMLYQYLKQ [RPAP3_Y567], the enrichment score is inactive: 0.816.

For KIEGIYARDET [RPL35A_Y34_V33I], the enrichment score is inactive: 1.7.

On to SGFESYGSSSS [RPA2_Y9_Y14S], for which the enrichment score was inactive: 0.549.

As to SGFESYGSSSY [RPA2_Y9], the enrichment score is inactive: 0.438.

As to QNVADYMRFLM [RPL5_Y207_YF], the enrichment score is inactive: 1.49.

On to KELAPYDENRF [RPS19_Y48_W52R], for which the enrichment score is inactive: 0.685.

As for RRGTRYMFSRP [RPL21_Y13], the enrichment score was inactive: 0.218.

Turning to HEDPMYDIIRD [RP9_Y142], the enrichment score was inactive: 0.607.

Consider KELALYDENWF [RPS19_Y48_P47L], for which the enrichment score was inactive: 1.04.

The target of another experiment is SHP2 N-SH2 domain T42A. The description is as above. To be noted: peptide library: pTyr-Var.
For ALKKPYGVLFK [RPF2_Y59_YF], the enrichment score is inactive: 2.33.

Turning to PVVKLYATEGR [RP1_Y199_D202E], the enrichment score is inactive: 0.73.

In the case of DENWFYTRAAS [RPS19_Y54], the enrichment score is inactive: 0.732.

Take PMFTKYGNSLL [RPGRIP1L_Y196]: the enrichment score was inactive: 1.07.

On to YGSSSSGGAGG [RPA2_Y14_Y14S], for which the enrichment score was inactive: 0.452.

As for ALKKPYGVLYK [RPF2_Y59], the enrichment score is inactive: 2.02.

As to SPYMLYQYLKQ [RPAP3_Y567_D564Y], the enrichment score was inactive: 1.87.

Regarding VIGRMYDFHVL [RPF2_Y109_YF], the enrichment score is inactive: 1.81.

Consider ALKKPYSVLFK [RPF2_Y59_G60S_YF], for which the enrichment score was inactive: 2.29.

Consider SPDMLYQYLKQ [RPAP3_Y567], for which the enrichment score is inactive: 0.882.

KIEGIYARDET [RPL35A_Y34_V33I]: the enrichment score was inactive: 0.832.

Regarding SGFESYGSSSS [RPA2_Y9_Y14S], the enrichment score is inactive: 0.583.

As for SGFESYGSSSY [RPA2_Y9], the enrichment score was inactive: 0.519.

On to QNVADYMRFLM [RPL5_Y207_YF], for which the enrichment score was inactive: 1.51.

KELAPYDENRF [RPS19_Y48_W52R]: the enrichment score was inactive: 0.719.

For RRGTRYMFSRP [RPL21_Y13], the enrichment score was inactive: 0.119.

As to HEDPMYDIIRD [RP9_Y142], the enrichment score was inactive: 0.573.

As for KELALYDENWF [RPS19_Y48_P47L], the enrichment score is inactive: 0.847.

In the next experiment the target is SHP2 N-SH2 domain T52S. Described as above. To be noted: peptide library: pTyr-Var.
ALKKPYGVLFK [RPF2_Y59_YF]: the enrichment score was inactive: 2.84.

For PVVKLYATEGR [RP1_Y199_D202E], the enrichment score was inactive: 0.751.

For DENWFYTRAAS [RPS19_Y54], the enrichment score is inactive: 0.707.

Regarding PMFTKYGNSLL [RPGRIP1L_Y196], the enrichment score is inactive: 1.03.

Consider YGSSSSGGAGG [RPA2_Y14_Y14S], for which the enrichment score is inactive: 0.336.

As for ALKKPYGVLYK [RPF2_Y59], the enrichment score was inactive: 2.55.

On to SPYMLYQYLKQ [RPAP3_Y567_D564Y], for which the enrichment score is inactive: 1.7.

On to VIGRMYDFHVL [RPF2_Y109_YF], for which the enrichment score was inactive: 2.82.

Turning to ALKKPYSVLFK [RPF2_Y59_G60S_YF], the enrichment score was inactive: 2.6.

For SPDMLYQYLKQ [RPAP3_Y567], the enrichment score was inactive: 1.

KIEGIYARDET [RPL35A_Y34_V33I]: the enrichment score was inactive: 0.951.

Consider SGFESYGSSSS [RPA2_Y9_Y14S], for which the enrichment score was inactive: 0.636.

In the case of SGFESYGSSSY [RPA2_Y9], the enrichment score is inactive: 0.512.

Turning to QNVADYMRFLM [RPL5_Y207_YF], the enrichment score is inactive: 1.8.

Regarding KELAPYDENRF [RPS19_Y48_W52R], the enrichment score is inactive: 0.689.

As to RRGTRYMFSRP [RPL21_Y13], the enrichment score was inactive: 0.256.

For HEDPMYDIIRD [RP9_Y142], the enrichment score was inactive: 0.738.

As for KELALYDENWF [RPS19_Y48_P47L], the enrichment score is inactive: 1.13.

For the next experiment, the target named is SHP2 N-SH2 domain wild-type. The description is as above. Conditions: peptide library: pTyr-Var.
On to ALKKPYGVLFK [RPF2_Y59_YF], for which the enrichment score was inactive: 2.38.

As to PVVKLYATEGR [RP1_Y199_D202E], the enrichment score is inactive: 0.677.

As to DENWFYTRAAS [RPS19_Y54], the enrichment score is inactive: 0.726.

PMFTKYGNSLL [RPGRIP1L_Y196]: the enrichment score is inactive: 1.01.

In the case of YGSSSSGGAGG [RPA2_Y14_Y14S], the enrichment score was inactive: 0.496.

In the case of ALKKPYGVLYK [RPF2_Y59], the enrichment score was inactive: 2.56.

On to SPYMLYQYLKQ [RPAP3_Y567_D564Y], for which the enrichment score is inactive: 1.47.

VIGRMYDFHVL [RPF2_Y109_YF]: the enrichment score is inactive: 1.67.

As to ALKKPYSVLFK [RPF2_Y59_G60S_YF], the enrichment score was inactive: 2.

As for SPDMLYQYLKQ [RPAP3_Y567], the enrichment score is inactive: 0.827.

Consider KIEGIYARDET [RPL35A_Y34_V33I], for which the enrichment score is inactive: 0.931.

In the case of SGFESYGSSSS [RPA2_Y9_Y14S], the enrichment score is inactive: 0.561.

On to SGFESYGSSSY [RPA2_Y9], for which the enrichment score is inactive: 0.572.

QNVADYMRFLM [RPL5_Y207_YF]: the enrichment score is inactive: 2.03.

With KELAPYDENRF [RPS19_Y48_W52R], the enrichment score is inactive: 0.874.

As for RRGTRYMFSRP [RPL21_Y13], the enrichment score is inactive: 0.258.

Take HEDPMYDIIRD [RP9_Y142]: the enrichment score was inactive: 0.877.

Regarding KELALYDENWF [RPS19_Y48_P47L], the enrichment score is inactive: 1.29.
